Measurements as given in the supplement of paper PMC11417369.
The list shows a part of the results.

What follows are sequences tested on PF3D7_0420300 AP2 domain 1 (GST-tagged) (assay: gcPBM binding intensity (ln(normalized median fluorescence intensity)); higher = stronger DNA binding).
Procedure, shortened: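 GST-fused DNA-binding domains of P. falciparum, expressed in E. coli, were applied at about 25 μg on average for 1 h to an Agilent 4 × 180k array of primer-extended double-stranded 36-bp intergenic genomic probes and negative controls. Binding intensity is the highest Masliner-normalised natural-log median intensity across replicate spots of either probe orientation, measured with Alexa488 anti-GST antibody and a 488 nm scan.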

Sequence	gcPBM binding intensity (ln)
TTTCTAATTTATATCACACACATATAAATATAGTAA [CACACA_site6210]	9.36
AAATAATATAAACATACACACACACCGATATATATA [CACACA_site8945]	10.2
ATGTATGAAAAAATGTGTACATAATTTTTTTTTTTT [XGTACX_site5444]	9.17
ATATATAGGTTCCCTTTTCTTTTTTTTTTTTTTTTT [CACACA_negctrl_site1159]	9.28
ATCATTCAAAAATGCTGTACTAGGGGAAAACGTGTT [XGTACX_site7168]	9.26
TTAAATGTTGGTTGTAGTACTCCATATGTTGTTTTA [XGTACX_site5312]	9.5
CTTATGTGCATACCTACACACTTACATATATATATA [CACACA_site8973]	9.6
TTTGGAATATTAATTGTGCACTTAAAAAGTTAATTA	9
TATATATATATAAGATGTACCCTTTGAAATAATAAT [XGTACX_site7215]	9.2
TGATACTGCAAAAAATATAAAAAAATAATAAAATAA [CACACA_negctrl_site791]	9.1
AGACAATAATATAATCGTACAATAAATAAAATAAAA [XGTACX_site5231]	9.43
AAATATAATATACAAAGTACTTTTTCATCTTATATA [XGTACX_site8771]	9.07
AAAATAATCTTTTGATTGCACTGTTACATTTTTTCT [GTGCAC_site9563]	9.42
TTTCTTCGAAATAGAACACTTGTGCAAAATAAGCAA [XGTACX_negctrl_site361]	8.96
TGAACAAAAAAAAATTGTACTTTTTTTTTAATATTT [XGTACX_site7172]	8.97
AAAAAAAACAATCTCATACACACTAGGGATTAATTA [CACACA_site1776]	9.46
ATTTTTTTATAAAATTTTTATATAATTTATTATAAA [GTGCAC_negctrl_site96]	8.85
TAAAGAGAAATATGTACATGCGAAAATGCCTTAAAT [TGCATGCA_site1050]	9.3
ATATATACTATAATAGTGCATTAAAAAAGTAAAAAT	9.44
CATAAAATATAAAACACACACACATATATATATATA [CACACA_site223]	9.94
TTCTGTATAATATAAAAACAAAAATTAAATTAAAAC [CACACA_negctrl_site81]	9.22
TTCCATGTAGGACATGCATGCAGTTTTTAAAATATT [TGCATGCA_site481]	9.21

Sequence	gcPBM binding intensity (ln)
AAATTTTTTATTCTAATTAATATTTACACAATATAT [TGCATGCA_negctrl_site376]	9.1
TATTATATAAATATACGTACATATACTAACCTTTTA [XGTACX_site6317]	9.1
ATATATAATTTTTGCTGTACACAAAATATTAATTTA [XGTACX_site2057]	9.13
TTTTATTAAAACCACGCATGCAGAGGAAACGGTGAG [TGCATGCA_site1029]	9.39
TATGACATATCCTGTAGTACAACGTATATATAAGAT [XGTACX_site1327]	9.24
AATAAAAATAATGAATGTACATATATATATACAATA [XGTACX_site3342]	9.25
ATATATAACGTGCACACACACATTTACGTATGAATA [CACACA_site6948]	9.94
TTTATGTATTTTTATGCACACATGCGTGGCTTATAT [CACACA_site4374]	9.55
TACGGACATACTAACGGACACACGTAAGAAAAAAAA [CACACA_site602]	9.33
TTTATAATAAAATTTTTACACACTTTAAAAAAAAAA [CACACA_site8070]	8.95
AATATTCGTAATTGATGTACTTGTAATTCATACATT [XGTACX_site8314]	9.3
TTTTTTTCAATATTTGCACACGATTATAATATTTAA [CACACA_site2237]	9.35
CAGAATAATTTTATCGGTACACACTGTATGCATAAT [XGTACX_site736]	9.42
AATAAATATCTGTACACACACAAATAAATACATATC [CACACA_site5108]	10.1
TATAATAAAAATAATACACACATATATAGCAATCGT [CACACA_site3241]	9.99
ATTAGTTTACACATATGTACATATATTACAACAAAA [XGTACX_site275]	9.22
GGTGATATAATATATACATGCACATATATATTATTA [TGCATGCA_site970]	9.33
TATGGAAATATATATTGTACGTATGACCTTTAAAAA [XGTACX_site3935]	9.19
TTTATATGTATGAAGTGTACACATATATTGTATTTT [XGTACX_site5731]	9.32
TTACAAAAAAATAATTGTACATACAATTTCTGTTAT [XGTACX_site877]	8.99
ATTATATCATCTAAAACATGCACACATATGTACTCT [TGCATGCA_site949]	9.54
GTTGAGAAAATATGTGCATGTCAGGTTAAATTTTTA [TGCATGCA_site744]	9.23

Sequence	gcPBM binding intensity (ln)
ATATATATATATATATGTACATAATATATGTCCTAT [XGTACX_site5087]	9.21
GTAAGCATAAATATATGTACATACATATACAGATAT [XGTACX_site3361]	9.44
TAAGATAAAAAAAATGCATGTTCTTATAATATTGTC [TGCATGCA_site939]	9.29
CTTTTATATGTCTAATGTACGGGCAATATAAATTTG [XGTACX_site8323]	9.11
ACACATTATAAAACTGTCGCTCATAAAGAAGAATGA [CACACA_negctrl_site999]	9.35
GCAACAAAAAATCAGACATGCATTTTAAAATGAATA [TGCATGCA_site846]	9.14
CATATTGAATATTTAACACACATTTCGCTTAATTCA [CACACA_site2086]	9.48
TTATATATAAAATACTGTACATTTAATTGATGGTTT [XGTACX_site2073]	9.29
TATAAAAAAAAAATTTGTACATAATAATATATATAT [XGTACX_site2074]	9
GAATGAATTGTTATTAGTACACATGTGAATTATAAA [XGTACX_site6790]	9.12
AAAAAGCAGGATTATACACACAAATATATATATGTT [CACACA_site1077]	9.66
TATATAAATTTAATAACACACATATAAAAATGAATT [CACACA_site2366]	9.47
AACTTGTATATATACACACACACACTATCTTTTTTT [CACACA_site8601]	10.2
TTTTATAATAAGTATGTAAAAATTATATATATATAT [CACACA_negctrl_site711]	8.99
ATATGTTTACGTAAATGTACACGTCAGTATATTTCT [XGTACX_site8199]	9.39
ATATATATATAACATTGTACACACAAAGAAATAATA [XGTACX_site6440]	9.67
ACAGGAGTATAACCTCGTACAAAATATATTTACCAT [XGTACX_site5805]	9.38
CCTAGAAAAGCATATACACACGCGCAAAATAAAATT [CACACA_site4902]	9.64
TCTTTAAAAAAAAAAAAAAAAAATTCCAAATAAATA [TGCATGCA_negctrl_site538]	8.71
TAAAAATAAAGAAAATGTACATAAATAAAAATAAAG [XGTACX_site2279]	9.56
TATATATATACATAATGTACAAGAATTTGTATTGAA [XGTACX_site627]	9.26
CGACAAAAATTTTACAGTACAGTATAAACCTTTTTA [XGTACX_site290]	8.94

Sequence	gcPBM binding intensity (ln)
TTTTTCACATTTCAGTGTACATTTTAATCATATATA [XGTACX_site915]	9.3
AAAAAAAAAAAAAAAAAAATATATTATATATATATA [XGTACX_negctrl_site467]	8.93
ATTTTTTTTTTTTTTTTAAGACAAACTCTTAATTTA [CACACA_negctrl_site1389]	8.83
ATTCCAAAAAAATCAAGTACTAATTTATTATATTAC [XGTACX_site3920]	9.1
TATTTTTTTAAGTGCAGTACACTTAATTTCCCCCAA [XGTACX_site7328]	8.95
TCAAAAAATATATTTGCACACTCAAAAAAAAAAAAA [CACACA_site860]	9.01
TACACACATTACAGATGTACATAAAATTAAAAAAAT [XGTACX_site1804]	9.54
TATATATATATAAATACATGCATATAATTAATCCAT [TGCATGCA_site400]	9.25
ATATTGTAGATATTGTGTACATATTTTACAACTTTT [XGTACX_site7621]	9.3
TATGTACACCCATATACACACCTCTATAATATATAT [CACACA_site4563]	9.67
ACATCATATTAAGAAAGTACAAAAAGAGAACATATA [XGTACX_site1268]	9.73
GGATTTATTATATATACACACATACAGATATATATA [CACACA_site5222]	9.53
TAAAAAAATAAATATACACACATATATATATATATA [CACACA_site1089]	9.4
TGTAGAAATGGGTGCACACACATATAAAATCTATAT [CACACA_site7224]	9.66
TCATTAAAAACTAAAAGTACTCAATATTATGAACAT [XGTACX_site7807]	9.23
CATATATATTTGTTCACACACACACTAGAAAAAAAA [CACACA_site5380]	9.97
ATAAAAAATAAAATAAATAAAAAATATTTACCCTTA [TGCATGCA_negctrl_site396]	9.04
TCAAATAATAAGTATGCATGCTATATTTATATATAC [TGCATGCA_site920]	9.18
TACATTTTACTTGTTACACACATATAAAATTAACCA [CACACA_site2922]	9.47
AAACGTACATAATACACACACATGTATACCTATAAA [CACACA_site7051]	9.89
AGTTAATGAATAGGCACACATATATCTGTATAAATA [CACACA_site4448]	9.47
AGAAAAAAAAAAAGTACACACATATAATATATATAT [CACACA_site2973]	9.75
